In experiment [1] the target is M22. The experiment is described as follows: M22 binding ability.
Experiment [2] deals with M22. The experiment is described as follows: M22 binding ability. This is another data set of the same source.

Positions count from the first letter of the chain named. Where two headings read alike, the source gives them in different places.

B1: TR-MCD (Fc fusion)
chain: GMGCSSPPCECHQEEDFRVTCKDIQRIPSLPPSTQTLKLIETHLRTIPSHAFSNLPNISRIYVSIDVTLQQLESHSFYNLSKVTHIEIRNTRNLTYIDPDALKELPLLKFLGIFNTGLKMPDLTKVYSTDIFFILEITDNPYMTSIPVNAFQGLCNETLTLKLYNNGFTSVQGYAFNGTKLDAVYLNKNKYLTVIDKDAFGGVYSGPSLLDVSQTSVTALPSKGLEHLKELIARNTWTLKKLPLSLSFLHLTRADLSYPSHAEAAKAAEATKAAEAAAKAAKA[skipping human IgG4 Fc with S228P (EU numbers)]
Turning to B1, the half-maximal inhibitory concentration (IC50) with M22 [1] amounted to 1.3 µg/mL.

B2: TR-L2 (Fc fusion)
chain: B1 chain with K266A, A267K, A268E, E269A, T271A, A273E, E275A, A277K, A278E, K279A
Consider B2, for which the 50% inhibitory concentration (IC50) with M22 [1] came to 1.3 µg/mL.

B3: TR-CD (Fc fusion)
chain: GMGCSSPPCECHQEEDFRVTCKDIQRIPSLPPSTQTLKLIETHLRTIPSHAFSNLPNISRIYVSIDVTLQQLESHSFYNLSKVTHIEIRNTRNLTYIDPDALKELPLLKFLGIFNTGLKMPDLTKVYSTDIFFILEITDNPYMTSIPVNAFQGLCNETLTLKLYNNGFTSVQGYAFNGTKLDAVYLNKNKYLTVIDKDAFGGVYSGPSLLDVSQTSVTALPSKGLEHLKELIARNTWTLKKLPLSLSFLHLTRADLSYPSHKARAAEAARAAEAAKAAEATKAAEAAAKAAKA[skipping human IgG4 Fc with S228P (EU numbers)]
B3 registered an IC50 with M22 [1] of 0.6 µg/mL.

B4: TR4-Fc (Fc fusion)
chain: GMGCSSPPCECHQEEDFRVTCKDIQRIPSLPPSTQTLKLIETHLRTIPSHAFSNLPNISRIYVSIDVTLQQLESHSFYNLSKVTHIEIRNTRNLTYIDPDALKELPLLKFLGIFNTGLKMPDLTKVYSTDIFFILEITDNPYMTSIPVNAFQGLCNETLTLKLYNNGFTSVQGYAFNGTKLDAVYLNKNKYLTVIDKDAFGGVYSGPSLLDVSQTSVTALPSKGLEHLKELIARNTWTLKKLPLSLSFLHLTRADLSYPSH[skipping human IgG4 Fc with S228P (EU numbers)]
For the molecule B4, the half-maximal inhibitory concentration (IC50) in the experiment with M22 [2] and in the experiment with M22 [1] was 5.6 µg/mL throughout.

B5: TR-G8 (Fc fusion)
chain: GMGCSSPPCECHQEEDFRVTCKDIQRIPSLPPSTQTLKLIETHLRTIPSHAFSNLPNISRIYVSIDVTLQQLESHSFYNLSKVTHIEIRNTRNLTYIDPDALKELPLLKFLGIFNTGLKMPDLTKVYSTDIFFILEITDNPYMTSIPVNAFQGLCNETLTLKLYNNGFTSVQGYAFNGTKLDAVYLNKNKYLTVIDKDAFGGVYSGPSLLDVSQTSVTALPSKGLEHLKELIARNTWTLKKLPLSLSFLHLTRADLSYPSHGGGGGGGG[skipping human IgG4 Fc with S228P (EU numbers)]
Molecule B5 yielded a half-maximal inhibitory concentration (IC50) with M22 [1] of 12 µg/mL.

Values taken from patent US20210221869A1 (published 2021).
